Experimental data reported in the supplement of paper PMC3334620.
The full ranking holds about 33,000 sequences; the median of “E-score (-0.5 to 0.5)” is about -0.056, and the highest 2% start at about 0.38. The list shows a part of the results.

Target: Stb4 (UniProt P50104)
Assay: PBM E-score (8-mer binding enrichment) (E-score (-0.5 to 0.5)); higher = stronger / more preferred TF binding; most listed sequences are background and not binding sites
Conditions: protein concentration: 200 nM; construct: GST-DNA-binding domain
Procedure, shortened: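 GST-tagged yeast TFs (full-length or DNA-binding domain) were made by PURExpress in vitro transcription/translation and applied at about 100-200 nM to universal all-10-mer Agilent arrays. The arrays were made double-stranded by primer extension, on fresh or once-stripped slides. Bound protein was detected with fluorescent anti-GST, and scans were normalised with masliner. Each ungapped eight-base word, pooled with its reverse complement, received an E-score (modified Wilcoxon-Mann-Whitney statistic) from the Universal PBM Analysis Suite.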

Sequence	PBM E-score
GAAGTGAC	0.138
CCACATGA	-0.194
CGAAGGGC	0.0578
CGTGTGTC	0.0273
ATGCTTCG	0.178
ACGTTTAG	-0.278
GCCAATTA	-0.0619
ACAGGATC	-0.176
GGGCTTCA	-0.0795
CAAACGCG	0.0177
ATAGTCAG	-0.206
AACGCGAC	-0.151
ATTACCTC	0.0335
GCGTTAGA	-0.031
AATTAACG	0.0149
ATGCAAAG	-0.0375
CGACCTCG	-0.0175
ACAATAAT	0.00727
ACTGAAGC	-0.188
CACTCCTG	-0.189
TCACGAGA	-0.256
GCACCAGA	-0.165
CCGCTTTC	0.186
AGCCGCAA	0.0737
ACCCGGAA	0.433

Sequence	PBM E-score
CAAAATTC	0.165
CTGAAGGC	-0.204
TATTTAGA	-0.129
GTCTAGAA	0.0687
CATCCCCG	0.259
ATGATAGC	0.0247
AAGAATTA	-0.0143
GAAAGTCA	-0.00187
AAAGCCCA	-0.0753
AATGCACT	-0.242
CCATTGTA	-0.11
TACAAGCA	-0.0326
TGCCGACA	0.359
ACGTATAT	-0.238
CCCGAAAC	0.339
ATCTGGTC	-0.16
GACAAACA	-0.021
TGATGCAA	-0.0757
GGAAAGAA	0.171
ATGGTATA	-0.256
TGGCGCCA	-0.353
ACTGGGTC	-0.221
CCTGGGAC	-0.354
CGGGGTCA	0.229
TGCGCCAA	-0.0992

Sequence	PBM E-score
AACCTCTG	-0.148
CCCTCCCA	0.051
AACAAGTA	-0.28
GCTTACGA	-0.323
GTAATAGA	-0.0589
ATTCTAAC	-0.16
CGTCTCAA	0.00967
AAAGAAAA	0.151
CCCCTTAC	-0.128
AATTTACA	-0.159
AGTATACG	-0.129
ATAACATC	0.0801
CAATAGCA	-0.131
ACTACGCC	-0.177
CACTCCAA	-0.0407
ATAGCTCC	0.0352
CAAAAGTC	-0.125
ATGGGAAA	-0.0912
GTGTCTTA	-0.108
ACCATAGT	0.117
GCTATACA	-0.182
GTAAACAA	0.0419
CGCCATCC	0.0474
AAGATCCA	-0.0259
CTTTCTTA	-0.246

Sequence	PBM E-score
GTTCAATA	-0.138
CTTCCGGA	0.396
GCGTAATA	-0.0928
AGTACGCG	0.00259
GACTCGGC	0.327
GAATAGTC	-0.0418
TATCCCCA	-0.185
TCCACGAA	-0.227
GACATTAA	0.0594
CCCCACGA	-0.255
CATGAGGA	-0.114
CGACTTGC	-0.00118
TACAGCTA	-0.168
ACGCAAAT	-0.00753
CGTGAAAC	-0.192
GTGAGGAA	-0.164
ACAATGAT	-0.13
AACGATGC	-0.219
ATGTTGAA	-0.0897
AGTTTCAA	-0.116
CTCAATGC	-0.196
AAACGAGT	-0.0975
AGCTCCTC	-0.243
CCGTGCCC	0.132
CTTACCAC	-0.217

Sequence	PBM E-score
GAGGAATC	-0.07
AATACAAC	-0.0229
AATAACCA	-0.192
ATGATTAC	-0.107
AGCCAGTA	-0.156
AAATAAAA	-0.136
ACATTCAG	-0.0679
TAGATATA	0.0454
TCGGGCAA	0.259
GTTGCGAA	-0.0168
GTCGGTAA	0.333
AGACAGCG	-0.104
CGCACGGC	0.11
ATATAAAC	-0.291
AGTCGGCC	0.168
GGGTTTAA	0.0372
GTTGGCTA	-0.0887
ACGCGCCC	0.0801
AACAGATC	-0.109
GGGTTACC	-0.0254
CCATTATC	-0.035
CCAGTCCG	0.17
ATAGCCTA	-0.127
AGGCTTAT	-0.105
ATAACGGA	0.224

Sequence	PBM E-score
CGTGCAAC	-0.0298
GTCTTAGA	-0.0106
AATACAGG	0.0152
GCTGCTAA	0.00882
AACTGCTC	-0.0532
CCTGGGGC	-0.0727
ACATGAAT	-0.194
CGCTCTCC	0.00849
CCCCTCCA	-0.0373
ACGATGGG	-0.088
CTATAACA	-0.184
AGATTCCC	0.127
CATTTCAC	-0.0375
TAATCAGA	0.012
GCCCTCAC	-0.191
CTCCGCAC	0.00913
CATCTGCC	0.021
AAGTGATT	0.0748
ATTCCTCC	0.198
CTAACGAA	-0.0167
CTGTTCGA	-0.156
GGGTGAAC	0.0237
ATAGACCG	0.0138
GACTTTTA	-0.18
CTGTTGCC	-0.114

Sequence	PBM E-score
CTTCGCTC	-0.00314
GGTTAATA	0.244
CAGCTGGG	-0.0458
CTGCCGTC	0.14
GAAATCCA	-0.00848
AGGGACTG	-0.22
ATACGCGG	0.215
GTGTTTAA	-0.111
ACGATTAG	-0.179
GCAAAAGA	-0.192
ATAGCCCG	0.11
ATCAGATC	0.0105
CAATTGTA	0.033
ACAACCCC	-0.0737
GATGGTAC	0.0948
AGACTACC	0.015
ATCAAACC	-0.00702
GCATAGCC	-0.0533
AACGAGTA	-0.0725
CGTGGATA	-0.0462
AGCACACT	-0.036
ATCCAGTC	0.042
